SMILES strings stand for the structures.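 Cells were grown in 96-well plates and exposed to each compound for 48 hours at five concentrations; endpoints were interpolated linearly between bracketing concentrations, or set to the highest concentration if not reached. The concentration for 50% growth inhibition is given as GI50.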 Active and inactive are the calls of the source. No stated cut-off is given here; in the data, active = GI50 up to about 1.1 µM and inactive = higher. Bounds are passed on as bounds.

In the experiment the test system is NCI-H322M. Put plainly: NCI-60 cell line screen, 48 h.
Consider `CC(C)(C)OC(=O)NCCCCC1NC(=O)[C@@H]2Cc3c([nH]c4ccccc34)C(C3CCCCC3)N2C1=O` (some centres not stated), for which the GI50 is inactive: 64 µM.
The result for `Cc1cc(S(=O)(=O)Nc2nnc3c(C(F)(F)F)cc(Cl)cn23)c(S)cc1Cl` reads inactive: 68.7 µM; that for `CN(C)c1ccc(NN=C2SC(=N\c3ccccc3)/C(=N/c3ccccc3)S2)cc1`, inactive: > 100 µM; that for `O=C(NN=C1CCCCC1)Nc1ccccc1Cl`, inactive: 76.9 µM.
For `Cc1c(CCCl)c(Cl)n2c(nc3ccccc32)c1C#N`, the GI50 was inactive: 1.46 µM.
The result for `O=C1/C(=C/c2ccccc2)CCc2ccc(Cl)nc21` reads inactive: 17.4 µM; that for `C=CCNC(=O)NCCCCC(NC(C)=O)C(=O)NCc1ccccc1` (configuration not stated), inactive: > 100 µM.
As for `O=C(CNc1nccs1)Nn1cnc2ccc(S(=O)(=O)Nc3nccs3)cc2c1=O`, the GI50 was inactive: > 100 µM.
The result for `CN(C)c1ccc(C(=N/N=C2\C(=O)Nc3ccccc32)c2ccc(N(C)C)cc2)cc1` reads inactive: 3.82 µM; that for `COc1ccc(-[n+]2nc(S(=O)(=O)O)c(/C=C/c3ccc(N(C)C)cc3)cc2C#N)cc1`, inactive: > 100 µM.
The result for `C/C(=N\NC(=O)c1ccncc1)c1ccccc1Cl` reads inactive: > 100 µM.
The result for `CC(=O)OCC1OC(n2c(-c3ccc(C)cc3)cc(-c3ccccc3)c(C#N)c2=S)C(OC(C)=O)C(OC(C)=O)C1OC(C)=O` (configuration not stated) reads inactive: > 100 µM; that for `Cc1ccc(-c2nc(-c3cnccn3)n(C3OC(CO)C(O)C(O)C3O)n2)cc1` (configuration not stated), inactive: > 100 µM; that for `CCC(C(=O)C(=O)OC)P1(=O)OC(C)(C)CN1C(C)(C)C` (configuration not stated), inactive: > 100 µM.
With `Cc1ccccc1OC(C)C(=O)NN1C(=O)CSC1c1ccccc1` (configuration not stated), the GI50 was inactive: 84.7 µM.
The result for `COC(=O)Cc1cc(=O)n2c3ccccc3n(C)c2c1C#N` reads inactive: > 100 µM; that for `CCN(CC)CC1CCCCN1CC(=O)N1c2ccccc2NC(=O)CC1C` (configuration not stated), inactive: > 100 µM.
The result for `O/N=C/[C@H]1COC2(CCCCC2)O1` reads inactive: > 100 µM; that for `N#Cc1c(C#N)c(-c2ccco2)n(-c2ccccc2)c1N`, inactive: > 100 µM; that for `CCOc1ccc(/C(C=O)=C(\Cl)c2ccc(OC)c(OC)c2)cc1`, inactive: > 100 µM.
Turning to `COC(=O)C(=O)Cc1nc2ccccc2s1`, the GI50 was inactive: > 100 µM.
The result for `CN(C)C(=O)C(F)(F)C(c1ccccc1)C1C(=O)N(C)C(=O)N(C)C1=O` (configuration not stated) reads inactive: > 100 µM; that for `O=C(O)/C=C(/C(=O)O)C12CCN3CC4=CCOC5CC(=O)NC1C5C4CC32` (configuration not stated), inactive: > 100 µM.
The result for `N=C(N)C(/N=N\c1ccccc1)C(=N)N` (configuration not stated) reads inactive: 48.6 µM; that for `C/C(=N\NC(=O)c1cccnc1)c1cccc(/C(C)=N/NC(=O)c2cccnc2)n1`, inactive: 3.67 µM.
The result for `CCC(C)NC(=S)N/N=C(\C)c1nc2cccnc2[nH]1` (configuration not stated) reads inactive: 10.3 µM; that for `N#CCc1nc(-c2cc3c(ccc4ccccc43)oc2=O)cs1`, inactive: > 100 µM; that for `CCCCCCCCC/C=C/C=C/C(=O)NCC(=O)NC1C(O)C(O)C(Nc2ncnc3[nH]cnc23)OC1C(O)CO` (configuration not stated), active: 0.00123 µM.
Regarding `Cc1ccc(NC(=O)C(=O)Cc2cccc[n+]2[O-])cc1C`, the GI50 is inactive: > 100 µM.
Consider `C=C(C)C(=O)OC1CC2(C)OC(=CC2=O)C(C)CC2OC(=O)C(=C)C12` (configuration not stated), for which the GI50 was inactive: 23.1 µM.
The result for `CCOC(=O)c1cc(C)n(CN(CCO)Cn2nc(C(=O)OCC)cc2C)n1` reads inactive: > 100 µM.
On to `CC(=O)NNc1nc(C)c(C(=O)NNC(=O)C(=O)Nc2c([N+](=O)[O-])ccc(C)c2C)s1`, for which the GI50 is inactive: > 100 µM.
As to `CCCCCCNC(=O)CCN(C(=O)O)S(=O)(=O)c1ccc(NC(=O)c2ccccc2)cc1`, the GI50 is inactive: > 100 µM.
The result for `COC(C(=O)C(O)C(C)O)C1CC2C=C3C=C(OC4CC(OC5CC(O)C(OC)C(C)O5)C(OC(C)=O)C(C)O4)C(C)C(O)=C3C(O)=C2C(=O)C1OC1CC(OC2CC(OC3CC(C)(O)C(OC(=O)C(C)C)C(C)O3)C(O)C(C)O2)C(O)C(C)O1` (configuration not stated) reads active: < 0.01 µM; that for `O=C(/C=C/c1ccccc1)NC1C=Nc2ccc([N+](=O)[O-])cc2NC1=O` (configuration not stated), inactive: > 100 µM; that for `C1=C\CCCCN2C[C@H]3CCCC/C=C\CCCCN4CC[C@@H]([C@H](CCCCCC/1)C4)[C@H](C3)C2`, inactive: 1.95 µM.
The result for `Cc1ccc(/C=C2\CCCC(C(NO)c3ccc(C)cc3)C2=NO)cc1` (configuration not stated) reads inactive: 17.2 µM.
The result for `CCOC(=O)C(=O)/C(=C/N1C(=O)CC(=O)NC1=S)C(=O)OCC` reads inactive: > 100 µM.
On to `COc1ccc(C(=O)/C=C/c2ccncc2)cc1OC`, for which the GI50 is inactive: 15.8 µM.
The result for `Cc1c(CCl)c(=O)oc2c(C)c3occ(CCl)c(=O)c3cc12` reads inactive: > 100 µM.
The result for `COC(=O)C([C@H]1CC[C@H](OCc2ccccc2)[C@@]1(O)COCc1ccccc1)C(C)(O)CCc1ccccc1` (some centres not stated) reads inactive: 24 µM.
The result for `c1ccc2[nH]c(C3CCCCO3)nc2c1` (configuration not stated) reads inactive: > 100 µM.
For the compound `CC(=O)N(CN1C(=O)CCC1C(=O)O)c1ccccc1Cl` (configuration not stated), the GI50 is inactive: > 100 µM.
Consider `COc1cc2c(cc1OC)-c1c(cc(OC)c(OC)c1OC)C2=O`, for which the GI50 was inactive: > 100 µM.
The result for `Cn1cnc2c1c(=O)n(CCNCCO)c(=O)n2C` reads inactive: > 100 µM.
The result for `On1c(-c2ccccc2)nc2ccccc2c1=S` reads inactive: 5.27 µM; that for `[N-]=[N+]=NC1C(O)C(CO)OC1n1ccc(N)nc1=O` (configuration not stated), inactive: 67.9 µM.
Turning to `CC[C@]12C=CCN3CC[C@@]4(c5cc(N=O)c(OC)cc5N(C)[C@H]4[C@@](O)(C(=O)NC(Cc4c[nH]c5ccccc45)C(=O)OC)[C@@H]1O)[C@@H]32` (some centres not stated), the GI50 is inactive: 15.1 µM.
The result for `Nc1cc(-c2ccc(Cl)cc2)nn1-c1nc2ccccc2nc1-c1ccccc1` reads inactive: 56.1 µM.
`C=C1CCCC(C)(C)[C@H]1C/C=C1\CCOC1=O`: the GI50 was inactive: 16.9 µM.
The result for `N#CC(C(=O)/C(=N/Nc1nc(S)nn1N)C(C#N)c1ccccc1)c1ccccc1` (configuration not stated) reads inactive: > 100 µM; that for `NC(=O)n1ncc(Cl)c(Cl)c1=O`, inactive: > 100 µM; that for `O=C1C(N2CCCC2)=CC(=O)c2c(O)c(N3CCCC3)c(Cl)c(O)c21`, inactive: > 10 µM.
The result for `Cc1cn(S(=O)(=O)c2ccccc2)c2c(OCc3ccccc3)cc([N+](=O)[O-])cc12` reads inactive: > 100 µM; that for `O=S(=O)(O)c1ccc(/N=N\c2ccc(/N=N\c3ccc(/C=C/c4ccc(/N=[N+](/[O-])c5ccc(/C=C/c6ccc(/N=N/c7ccc(/N=N\c8ccc(S(=O)(=O)O)cc8)cc7)cc6S(=O)(=O)O)c(S(=O)(=O)O)c5)cc4S(=O)(=O)O)c(S(=O)(=O)O)c3)cc2)cc1`, inactive: > 100 µM.
The result for `CC1OC1C(=O)P(=O)(O)O` (configuration not stated) reads inactive: > 100 µM.
In the case of `Cc1nc2cccc([N+](=O)[O-])c2n1CCCN(C)C`, the GI50 was inactive: > 100 µM.

For the origin of these results see ChEMBL document CHEMBL1201862, “PubChem BioAssay data set” (2004).
